Data reported in PubChem BioAssay AID1508624 (National Center for Advancing Translational Sciences (NCATS), 2021).
Among all 48,000 compounds or so, about 120 (0.25%) were called active. About 4% were inconclusive and are not listed. Calls follow the shape of the dose curve; as a rule, active = well fitted activation curve with a large enough effect; inconclusive = small, poorly fitted or top-dose-only effect, or another doubt; inactive = no such curve, though single readings can be large or run the other way. Some of the results follow.

assay: Primary qHTS for Identification of Small Molecule Activators of Huntingtin-Antisense Promoter Activity; details: HEK293 HTT-AS promoter firefly luciferase reporter (activity 0% = vehicle and -100% = no light), 24 h; series mostly up to 57.5 µM; activity change, positive = activation: at the top concentration; also: nearly all actives have a fitted effect of over 55% in size
Procedure, shortened: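 HEK293 cells carrying firefly luciferase reporters were seeded at 2,500 per well in Opti-MEM and cultured for 24 h. They were then treated with compounds at up to 57.5 uM final for 24 h at 37 degrees C before Dual-Glo luminescence readout.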

Activity change, positive = activation, inactive:
Cc1cc(C)c2oc(-c3cccc(NC(=O)c4ccc(Br)o4)c3)nc2c1 9.14%
CCOc1ccc(NC(=O)c2oc3ccccc3c2NC(=O)Cc2ccc(F)cc2)cc1 -1.71%
CCC(C)c1ccc(OCC(=O)Nc2cccc(-c3nc4ncccc4o3)c2)cc1 (stereo not drawn) -1.41%
CSc1ccc(CNC(=O)CCn2ccc3cc(S(=O)(=O)N4CCC(C)CC4)ccc32)cc1 -20.4%
COc1ccc(N2CCN(C(=O)c3cnc(N4CCCC4)nc3C)CC2)cc1 -8.37%
CC1=C(c2ccc(C)cc2)S(=O)(=O)N(Cc2ccc(C(=O)NCc3cccc(C)c3)cc2)C1=O -27.1%
COc1ccccc1CNS(=O)(=O)c1ccc2[nH]c3c(c2c1)CCCCC3 -29%
CCC(Sc1nc2ccccc2c2nc(CCc3c(C)n[nH]c3C)nn12)C(=O)Nc1ccc(F)cc1 (stereo not drawn) -6.87%
Cc1c(Cl)cccc1NC(=O)N1CCC(CN2CCCC2)CC1 -8.27%
O=C(Nc1sc2c(c1C(=O)Nc1ccccc1Cl)CCCC2)c1ccccc1F 9.44%
COc1ccc(CCNC(=O)CN(c2ccccc2OC)S(=O)(=O)c2ccc(C)cc2)cc1 -37.7%
COC(=O)c1c(NC(=O)c2cc(=O)c3ccc(C)c(C)c3o2)sc2c1CCCC2 3.08%
O=C(NCc1ccccc1Br)C1CCCN(C(=O)N2CCOc3ccccc32)C1 (stereo not drawn) -25.4%
CCCCN(CCCC)CC(O)c1cc(Cl)cc2c1-c1ccc(Cl)cc1C2=Cc1ccc(Cl)cc1 (stereo not drawn) -0.925%
COCCCNC(=O)Cn1c(=O)n(Cc2ccc(C(=O)NCc3ccc(C)cc3)cc2)c(=O)c2ccccc21 -13.8%
Cc1ccc(NC(=O)CSc2nc(C)c(Cc3ccccc3)c(=O)[nH]2)cc1 -28.3%
COc1ccc(-c2cc3nc(-c4ccccc4)cc(C(F)(F)F)n3n2)cc1 1.16%
COc1ccc(CCNC(=O)Cc2c(C)c3c(cc(C)c4c(C)coc43)oc2=O)cc1 1.85%
O=C(Nc1ccccc1F)c1nc(S(=O)(=O)Cc2ccccc2F)ncc1Cl -90%
CCN(C(=O)c1noc2c1COc1ccc(C)cc1-2)c1cccc(C)c1 -19.4%
CCOc1ccc(-c2nnc(SCC(=O)NC3CCCC3)nc2-c2ccc(OCC)c(OC)c2)cc1OC 28.8%
CC(C)(C)OC(=O)N1CCC(c2c(C(=O)NCCN3CCC(Cc4ccccc4)CC3)cnn2-c2cccc(Cl)c2)CC1 -52.3%
Cc1cccc(N2CCN(C(=O)c3cc(S(=O)(=O)N4CCC(C)CC4)cn3C)CC2)c1C -25.6%
CCCNC(=O)c1ccc2c(c1)N=C(C)c1c(C)ccc(C)c1S2 -53.6%
O=C(NCCCN1CCN(c2ccccc2)CC1)c1nnc(Cc2c(F)cccc2Cl)o1 -27.5%
O=C(NCc1ccc(Cl)cc1)C(=O)NCC(c1cccs1)S(=O)(=O)c1ccc(Cl)cc1 (stereo not drawn) -25.2%
CCOc1ccc(CCNC(=O)C2CCN(c3ncnc4c3nc3n4CCCCC3)CC2)cc1 -27.7%
Cc1ccccc1NC(=O)CCC(=O)N1CCSc2ccccc21 -15.2%
Cc1ccc(S(=O)(=O)N(CC(=O)Nc2ccc(C(C)C)cc2)Cc2ccccc2)cc1 -32.1%
CC(=O)N1c2ccc(S(=O)(=O)NCC3CCC(C(=O)NC(C)(C)C)CC3)cc2CC1C (stereo not drawn) -5.39%
O=C(NCC(c1cccs1)S(=O)(=O)c1cccs1)c1ccccc1F (stereo not drawn) -5.02%
CCN(CC)c1nn2c(=O)c(C(=O)NCc3ccc(OC)cc3OC)cnc2s1 -15%
Clc1ccccc1N1CCN(c2ncnc3c2c(-c2ccccc2)cn3-c2ccccc2)CC1 -11.1%
COc1ccccc1CNC(=O)c1ccccc1NC(=O)c1nsc2ccccc12 9.47%
Cc1ccc(-n2nc3ccc(NC(=O)c4oc5ccccc5c4C)cc3n2)cc1 8.46%
CCOC(=O)c1[nH]c2ccccc2c1NC(=O)c1ccccc1OCC -30.2%
O=C(Nc1ccc2c(c1)CCCN2C(=O)c1cccs1)c1cccc(C(F)(F)F)c1 -29.9%
CCOc1cc(C(=O)Nc2ccc(Cl)c(-c3nc4ccccc4[nH]3)c2)cc(OCC)c1OCC -33.8%
Cc1ccc(C(=O)Nc2ccc(Br)cc2)cc1S(=O)(=O)N1CCOCC1 -22.4%
CC(=O)c1cccc(NC(=O)Cn2c(=O)c(CNc3ccc(C)cc3)cc3cc4c(cc32)OCCO4)c1 -5.19%
COc1ccccc1C(=O)Nc1ccc2nc(N3CCC(C)CC3)cc(C)c2c1 -18.2%
CCOc1ccccc1NS(=O)(=O)c1c(C)nc2sccn2c1=O -13.5%
CCn1c(=O)c2cc(C(=O)N(CCCOC(C)C)Cc3ccco3)sc2c2ccccc21 -33%
Cc1ccc(-c2sc(C(=O)Nc3ccc(Br)cc3)cc2CC(=O)O)cc1 -13.5%
COc1ccc(NC(=O)CSc2nc3c([nH]c4ccccc43)c(=O)n2C)cc1 -7.53%
Nc1c(C(=O)Nc2ccccc2Cl)c2ccccn2c1C(=O)c1ccc(Cl)cc1 2.04%
Cc1ccc(CNC(=O)CSc2ncc(S(=O)(=O)c3ccc(Br)cc3)c(=O)[nH]2)cc1 1.44%
COc1ccc(NS(=O)(=O)c2ccc3c(c2)C(C(C)C)C(=O)N3)cc1 (stereo not drawn) -25.1%
CC1(C)S[C@@H]2[C@H](NC(=O)[C@H](N)c3ccccc3)C(=O)N2[C@H]1C(=O)O -0.778%
CCc1nn(CC(=O)NCCC(C)C)c(=O)c2cc3occc3n12 -11.6%
CCn1c(C)c(C2N3CC4(C)CN2CC(CC)(C3)C4=O)c2ccccc21 (stereo not drawn) 2.38%
Cc1ccc(CNC(=O)C(=O)NCC(c2cccs2)S(=O)(=O)c2ccc(C)cc2)cc1 (stereo not drawn) -38.5%
COC(=O)c1sccc1S(=O)(=O)N(CC(=O)NCc1ccccc1)c1ccccc1 -18%
Cc1c(C(=O)N2CCC(C)CC2)c(S(=O)(=O)NCc2ccccc2)c(C)n1C -2.67%
Cc1nn(C(=O)c2ccccc2F)c(C)c1S(=O)(=O)N1CCOCC1 -9.1%
COc1cccc(CC(=O)Nc2ccc3nc(N4CCC(C)CC4)cc(C)c3c2)c1 -34.9%
CCOc1ccc(CNC(=O)CCC(=O)N2CC3CCCN3c3ccccc32)cc1 (stereo not drawn) -9.14%
COc1ccc(Cl)cc1NC(=O)c1cc(S(=O)(=O)N2CCC(C)CC2)cn1C -16.1%
CCN1CCN(C(c2cccc(F)c2)c2c(O)cc(C)n(CCOC)c2=O)CC1 (stereo not drawn) 0.406%
CCc1nc2cccnc2n1-c1ccc(CC(=O)Nc2ccccc2Cl)cc1 -17.2%
Cc1cccc(NC(=O)CSc2nc3c(oc4ccccc43)c(=O)n2Cc2ccco2)c1 -8.75%
C=C[C@H]1CN2CC[C@H]1C[C@H]2[C@H](O)c1ccnc2ccc(OC)cc12 -3.02%
CC(C)C(=O)Nc1ccc2nc(SCC(=O)N3CCOCC3)sc2c1 1.03%
Cc1cc(NS(=O)(=O)c2ccc3nc(-c4ccccc4)[nH]c3c2)ccc1Br -35.6%
Cc1ccc(C)n1-c1nnc(N2CCC(C(=O)NCc3ccc(F)cc3)CC2)s1 0.126%
CCOC(=O)c1c(N)n(-c2ccccc2CC)c2nc3ccccc3nc12 -8.36%
Cc1ccc(N2CC(c3nnc(NC(=O)c4ccco4)s3)CC2=O)cc1Cl (stereo not drawn) -3.24%
O=S(=O)(c1ccc(Br)cc1)c1nnn2c1nc(NC1CCCCCC1)c1sccc12 -13.2%
COc1ccc(-c2cn3cccnc3n2)cc1NC(=O)c1c(F)cccc1F -7.06%
COc1cccc(CNC(=O)C2CCN(S(=O)(=O)c3ccc4c(ccn4C)c3)CC2)c1 -20.9%
CSc1ccc(C2c3[nH]c4ccccc4c3CCN2C(=O)CCc2ccccc2)cc1 (stereo not drawn) -38%
COc1cc(Cl)c(C)cc1NC(=O)CCn1c(=O)c2cccn2c2cccnc21 -6.22%
CC(C)c1nc2ccc(C(=O)NCc3ccc(N(C)C)cc3)cc2o1 11.3%
Cc1ccc(-n2nc3c(=O)n(CCCC(=O)NCCc4ccccc4)nc(C)c3c2C)cc1 14.1%
Cc1cccc(CCNC(=O)CCS(=O)(=O)c2cc3c(cc2Cl)NC(=O)CO3)c1 -18.7%
COc1ccc(C)cc1Nc1nc2ccccc2c2nnc(C)n12 -16%
COC(=O)c1cc2occc2n1CC(=O)Nc1cccc(SC)c1 8.92%
O=S(=O)(NCC(c1ccco1)N1CCN(c2ccc(F)cc2)CC1)c1ccccc1 (stereo not drawn) -18.8%
CC(=O)NCCCCCC(=O)O -0.246%
CCn1c(=N)c(C(=O)NCc2cccnc2)cc2c(=O)n3cc(C)ccc3nc21 -2.57%
COc1ccc(-c2nc(CSCC(=O)NCCc3ccc(C)cc3)c(C)o2)cc1OC -18.9%
CCCCN(Cc1ccccc1)S(=O)(=O)c1ccc2c(c1)CC(C)N2C(=O)CC (stereo not drawn) -40.4%
COc1ccccc1Cc1nc2ccccc2nc1SCC(=O)NCCc1ccccc1 -8.09%
CCN(CC)CCCNC(=O)c1c(C)oc2ncnc(N3CCOCC3)c12 4.06%
CN(C(=O)CSc1nc2ccccc2n1CC(=O)NCc1ccc(F)cc1)c1ccc(F)cc1 -4.94%
CCOC(=O)Cn1cc2c(c1-c1ccc(Cl)cc1)c(=O)n(C)c(=O)n2C 1.61%
CCc1noc2nc(C)n(CC(=O)O)c(=O)c12 -0.145%
Cc1c(C(=O)NCc2ccc(Cl)cc2)sc2nc3n(c(=O)c12)CCCC3 -5.07%
O=c1n(CCCN2CCN(c3cccc(Cl)c3)CC2)nc2ccccn12
CCOc1ccc(CNC(=O)c2ccc(NC(=O)c3nsc4ccccc34)cc2)cc1 -32.8%
CCC(=O)Nc1sc2c(c1C(=O)Nc1ccccc1C)CCC(C)C2 (stereo not drawn) -32%
Cn1c(=O)c2sccc2n2c(CCC(=O)N3CCN(c4ccccc4)CC3)nnc12 -14.7%
O=C(O)c1cc(=O)[nH]c(=O)[nH]1
Cc1nc(N)nc(N)c1-c1ccc(Cl)c(Cl)c1 -23%
CCC(Cc1ccccc1)NC(=O)c1oc(=O)c2ccccc2c1-c1ccccc1 (stereo not drawn) -7.72%
COC(=O)c1ccccc1NC(=O)c1noc2c1CSc1ccccc1-2 -7.1%
COc1ccc2nc(NC(=O)c3ccc(S(=O)(=O)N4CCC(C)CC4)cc3)sc2c1 -26.6%
CCc1ccc(NC(=O)N2CCN(Cc3cc(=O)n4nc(-c5ccccc5OC)sc4n3)CC2)cc1 1.41%
